Test results taken from the supplement of paper PMC3334620.
The full ranking holds about 33,000 sequences; the median of “E-score (-0.5 to 0.5)” is about -0.035, and the highest 2% start at about 0.34. This is one part of the list.

molecular target: T1, Mot3 (UniProt P54785); test: PBM E-score (8-mer binding enrichment) (E-score (-0.5 to 0.5)); higher = stronger / more preferred TF binding; most listed sequences are background and not binding sites; conditions: protein concentration: 200 nM; construct: GST-full length
T1 sequence: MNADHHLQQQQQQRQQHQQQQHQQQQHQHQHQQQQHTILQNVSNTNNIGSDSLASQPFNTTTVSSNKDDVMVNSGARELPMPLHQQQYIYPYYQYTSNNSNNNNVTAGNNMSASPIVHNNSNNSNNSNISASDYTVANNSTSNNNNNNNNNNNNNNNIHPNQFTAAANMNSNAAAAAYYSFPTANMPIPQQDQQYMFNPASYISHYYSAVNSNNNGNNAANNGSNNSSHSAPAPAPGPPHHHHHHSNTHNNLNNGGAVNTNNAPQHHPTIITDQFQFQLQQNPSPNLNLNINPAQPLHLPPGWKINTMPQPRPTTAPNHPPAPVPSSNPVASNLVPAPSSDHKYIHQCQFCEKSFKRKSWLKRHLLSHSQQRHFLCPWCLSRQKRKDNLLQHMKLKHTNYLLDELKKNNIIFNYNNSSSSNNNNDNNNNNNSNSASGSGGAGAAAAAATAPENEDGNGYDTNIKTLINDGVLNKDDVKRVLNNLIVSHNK
Method in brief: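 Detection of bound protein used fluorescent anti-GST, with scans normalised by masliner. The proteins were GST-tagged yeast transcription factors applied at about 100-200 nM to universal all-10-mer Agilent arrays made double-stranded by primer extension. Each ungapped eight-base word, pooled with its reverse complement, was scored with an E-score from the Universal PBM Analysis Suite.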

Sequence	PBM E-score
CCAAATAG	0.00768
GAGGTATC	-0.119
ATACTGAC	-0.00434
TCGAACGA	-0.132
CTGAAAAC	-0.00504
CATAAATA	0.0659
CGGTGTAC	0.0428
CCACTAGA	-0.138
CGCCCCAC	-0.243
AGCTTGCC	0.318
AGGACTCC	-0.257
AACGAGCC	0.0554
GCGATGGA	-0.19
AGTATATA	0.117
CTTGCCTC	0.425
ATGCCCTA	-0.304
CCTCTTCG	-0.175
ACGTGGAG	-0.00647
AGACTGTC	-0.129
CCGGCTAC	-0.218
CCCACGAG	-0.293
GAGGTCTA	-0.267
ACCGTGTG	0.175
ACTGTCAG	-0.032
CGCAATCC	-0.0355

Sequence	PBM E-score
AATTACTC	0.295
GTTAGGCA	0.454
ACCCCTCT	-0.0858
CGGCTTTC	-0.107
AGCTAGAG	-0.0566
ACTCCTTC	-0.0369
GATAAACC	-0.0874
GGGGTTGA	-0.192
CTAGAGAC	-0.235
GACCTCTC	-0.234
CTCGGAAG	-0.171
AACTACCG	-0.0555
AAAGGGTG	0.0112
CCTACCGA	-0.04
ACGGATTG	-0.19
GATGCTGC	-0.131
ACATGTGC	0.314
CGGGTCGA	-0.253
CGTTGGCA	0.00506
AACATCGT	0.077
CCCCATGC	-0.0474
AAGAACGT	0.165
TTCGTCAA	0.048
CAATTCAG	-0.0267
GTCTAAAC	0.058

Sequence	PBM E-score
CTACTATC	0.0896
ATCAGTAC	-0.0527
CAGACCCG	-0.0882
ACGGGCAA	0.0915
AACCAATG	0.0897
GCGTATGA	-0.0512
AATTATAG	-0.0152
AAGCCAAC	-0.0405
CAGCGTGC	0.00716
TGCCTCCA	0.404
ATTTTCAC	0.0895
CCAGTCCC	-0.325
ATCAACAT	0.339
AGGTAAGA	0.144
CTAGCGAG	-0.233
AGGATAAG	-0.191
CGAATATC	-0.0868
CACCTGAG	0.0319
GCGGCTAA	-0.14
TGGGTGAA	0.114
GACCAGGA	-0.0221
ACAGGAAT	0.107
ATTCAATA	0.0942
CGATCGAC	-0.00926
TAGCATGA	0.13

Sequence	PBM E-score
TTCATCAA	0.102
TATTCTAA	0.0881
GAACACCA	-0.0537
ATTAACAA	0.328
AGAGCCCG	-0.342
ACTCATCA	-0.0406
ACCGTTAT	-0.0919
AGGCACCA	0.492
AATCGATA	0.0988
CCTCCAAG	0.0657
CCTTCCGC	-0.133
ACGCCTAC	0.0133
AATAGTTA	0.0491
GAATGACC	-0.244
AGCACTTC	-0.0493
GAGCAATA	-0.0444
AAGTGGGG	-0.154
CATTAGTA	0.102
ACCCATCC	-0.237
TCATCAAA	-0.00291
CACATCTC	0.0801
TCGTTAAA	0.104
TCGATAGA	-0.0212
AAGTGGAG	0.128
ATGAGATC	-0.0244

Sequence	PBM E-score
CAAATTAA	0.106
CAAAACGA	0.162
ATCCGTTC	-0.0618
AATACAAT	0.148
AACGGTGA	-0.107
CACGACGA	0.0462
ACACATGC	0.207
GTCTCGTA	-0.0598
GAGGATCC	-0.146
CATTCTGC	-0.0816
CTCAAGCA	-0.101
AATCATGC	0.0214
ATCACCTA	-0.116
TAAACAGA	0.177
CTCCCGAA	-0.263
ATCCACTA	-0.0198
CACAGTGC	0.0432
CTTCACGC	0.151
CCTTTCCG	0.00318
AACTCAGA	0.143
AAAATGCA	-0.0614
GGAAACCC	0.0425
GCGTTAAA	0.239
AAACCAAT	-0.0172
GCATATCA	-0.0598

Sequence	PBM E-score
GCCTTTCC	0.192
CAGCTAAA	0.105
CAACATGA	0.352
AGCAGTAT	-0.254
AACGTATT	0.223
GGGGAGAC	-0.257
AATTACAG	0.27
CCTATCCC	-0.129
ATGTGCCA	0.0201
ATCCTGAG	-0.153
CCACTGGA	-0.232
CTTAAAGC	0.00562
CCATGGCG	-0.134
CCGATTGA	-0.011
AACGTGAT	0.0924
CCAAAATC	-0.0299
AAATTTTA	0.195
GCGCCACA	-0.0964
AGACGCCC	-0.331
CCCGCGAG	-0.205
AAAATCAC	0.145
CGAACCAA	-0.121
AAAGTTCG	0.111
GGACTTAA	-0.0725
GTAGAAAC	0.218

Sequence	PBM E-score
ATTTGCTA	-0.0903
AAAATTTT	0.0875
AACCGTAG	-0.229
AAGGTGAA	-0.0354
AGTCAAGA	-0.176
ACCCAGTC	-0.272
CGAAGCAA	0.0941
CGCTCAAG	-0.0197
TCCCAACA	-0.0506
CCTCAACA	0.275
AGTCCTAT	-0.0536
CAGTTCCA	-0.00514
CACACTGC	-0.218
AAGTGGCT	-0.213
CGTCCCTC	-0.103
CCGTTTCC	0.041
GGGATGGA	-0.118
TAACGTGA	0.141
CCGAAAGC	-0.0343
CATGTTCG	0.158
GCAGACTA	-0.142
CTTACCTC	-0.0814
ACGCTGCG	-0.0155
ATCCCAGC	-0.159
CGAAAAAA	0.187

Sequence	PBM E-score
GATGTTAC	0.276
AGCCACTC	-0.171
GGCATAGA	-0.14
CGCTGCAG	-0.0424
TCAGAGGA	-0.251
AAGTAGTC	0.118
CAAGGCCG	-0.0783
CAAAGGAG	-0.0795
CATGACGA	-0.0662
TCATGAGA	0.0252
GCGCCGTA	-0.0443
CACTGATG	-0.0925
ATAAAGAG	0.0636
AAACGTGT	0.344
GACGGCCA	-0.165
ACTTTGAG	0.0207
AGTAAATG	0.207
AACGATCC	-0.212
CAAGCCGC	-0.00773
ATTGCATG	-0.0116
GCTTTGTA	0.216
CCCTGCCC	-0.284
CAGTCCTC	-0.298
ATCCCGTC	0.011
AATGGTCG	-0.0766

Sequence	PBM E-score
AAGGGGGT	-0.18
ACGGTACA	-0.0548
GGGAGCAC	-0.45
TACCAGCA	-0.158
ATCATTCG	-0.175
CACCATAA	-0.0272
AGATGGCG	-0.0823
GTATTTTA	0.23
AGGTGTGG	-0.301
ACCTGTGA	0.23
GTCTAGGA	-0.024
CAAGCCCG	-0.178
ATAAGTCA	0.0444
ACTTATAA	0.136
TCTGAGAA	-0.0446
GAAGTTAC	0.0404
CCAATACA	0.163
GATTGTAC	-0.0144
ATCGCGAG	0.0717
